We go through 93 sequences from paper PMC10726135.

Some of the results follow. At the low end of the ranking the order means little. The protein was read in a cell extract, so binding may be indirect.

For this assay, the target named is T1, HNF4alpha2 (COS-7 nuclear extract) (UniProt P41235).
T1 sequence: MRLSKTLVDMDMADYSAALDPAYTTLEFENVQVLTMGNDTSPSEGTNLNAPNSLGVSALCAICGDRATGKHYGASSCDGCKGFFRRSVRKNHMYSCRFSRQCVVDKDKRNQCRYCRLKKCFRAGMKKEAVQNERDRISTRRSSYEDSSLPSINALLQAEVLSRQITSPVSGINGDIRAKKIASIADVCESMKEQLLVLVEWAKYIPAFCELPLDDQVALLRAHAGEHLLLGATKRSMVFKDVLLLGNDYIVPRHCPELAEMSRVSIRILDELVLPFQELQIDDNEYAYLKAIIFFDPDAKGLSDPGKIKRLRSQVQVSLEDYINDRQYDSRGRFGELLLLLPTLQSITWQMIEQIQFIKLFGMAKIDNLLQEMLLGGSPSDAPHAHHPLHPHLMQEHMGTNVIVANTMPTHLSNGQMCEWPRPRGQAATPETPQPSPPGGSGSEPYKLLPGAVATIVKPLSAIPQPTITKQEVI
As to the kind of experiment: protein-binding microarray. As to conditions: COS-7 nuclear extract on double-stranded Agilent 4x180k PBM; binding buffer, salt, pH and temperature not given; high values mean tight binding; double strand, one strand shown; sequences stand for … in …GCCTAGGGAGATTAGAGTATCGGTCGA
ACAAAAAGCGGACAAACCAGTCCCATCTGT: the binding signal (log2 normalized intensity) was -1.17. Consider CAATGCAAATCCCAGAGTTCAAAGGCCAAA, for which the binding signal (log2 normalized intensity) was 4.3. As to TGAATGATCAAAGGTTGGTTTTTGGAGACA, the binding signal (log2 normalized intensity) is 2.92. For AAATTACACTGGGAGGCAAATCTCTTGGTC, the binding signal (log2 normalized intensity) was -0.205.

Take CTTCAGCACCTTTTAAAATAGATAAGTCCC: the binding signal (log2 normalized intensity) was determined as 0.338. Consider TTGCCACATTTATTGTGAGATTACGTAAGT, for which the binding signal (log2 normalized intensity) amounted to 1.68. Turning to ACCCACCAACAAAAGAAAGCCCATTAAATC, the binding signal (log2 normalized intensity) was -1.12. As to GGATGAAGGAAGAGGGAAGACCAAAGGCCA, the binding signal (log2 normalized intensity) is -1.11.

TACACTCGCCGTGTGACTGAGGGCTGACAT: the binding signal (log2 normalized intensity) is -0.964.

Take AGCAACCAGAATGTTCAAAAGTGTGTTGGT: the binding signal (log2 normalized intensity) amounted to 1.67.

Consider CTTTCAGAAGGGGACAAGCACATTAGGAGG, for which the binding signal (log2 normalized intensity) is -1.12. Turning to CTCTGTGCTCCCAGTTCCCTCATTAGTAAC, the binding signal (log2 normalized intensity) came to 1.33.

As to AGCCTGCCTGCTCCTCCTCGTGAGTTGGAG, the binding signal (log2 normalized intensity) is -1.06. As for ACATTCTTCAATATCAGTGGCACTCTCTGG, the binding signal (log2 normalized intensity) came to 1.53.

With TCCCCTCCCAAGGCAGCAATCCCCTGCAAT, the binding signal (log2 normalized intensity) was determined as 4.88.

ATTAGCTTCTGTTCAGGAGTTGTCTGTCCA: the binding signal (log2 normalized intensity) is 1.1.

For CACAGAGGGAAATGCAAACATTTCTGGAAT, the binding signal (log2 normalized intensity) was -1.22. On to ACAGATGGTGTTAAATCCTATCCTAGGGTT, for which the binding signal (log2 normalized intensity) is -1.08. With GATTAGAAGATAGCTTTAAAGACCAAAGAT, the binding signal (log2 normalized intensity) is -0.801.

For ATTAGTAGCAATACTTTCAGCTAGCTGAGT, the binding signal (log2 normalized intensity) was -1.14. On to GATTAAAGGAGAACTGAGTAGGAGAATGTT, for which the binding signal (log2 normalized intensity) is -0.329.

Consider AAGCCCAAGGGATCGTCCAAATACCTAGCT, for which the binding signal (log2 normalized intensity) is -1.22. For the sequence CCCCCAGAGCCCCGTGTCTCCCTACCTCTG, the binding signal (log2 normalized intensity) worked out at 3.68. The figure for GCAAGATTAAGATCAAAGAATTCCTAATAA is -1.26; for GAATTTTCTCATCCGCTAATGACACCAGGG it is -0.855; for CAAGAATTTAAGAGAACTAGAGATAAGGTA it is -0.654. In the case of CTCTAACCACTTTGAAATAGTGACCTCTGC, the binding signal (log2 normalized intensity) was determined as 4.36. Take TATATTTGTGCAAGAATGCGTCATCCGCAT: the binding signal (log2 normalized intensity) came out at 0.493. With ATCTAGAGACACTATGTGCATTCCAAGGCT, the binding signal (log2 normalized intensity) is -1.1. The figure for GAGAGGGATAAAAGGGGAAAAGGTCAAATA is 2.32. On to GCATTTCTGGACTTGGATCAGCCTGATTGA, for which the binding signal (log2 normalized intensity) stood at 1.94. For the sequence AAAGGTGAGTATGAGTAGGCTGTAGAGGAG, the binding signal (log2 normalized intensity) is -0.455.

For the sequence TCTCTCACCAGAAAAATGTACATGTGCAAA, the binding signal (log2 normalized intensity) turned out to be 1.52. As for CTTGCTAAGTATAAAGTTAAGACCTACATT, the binding signal (log2 normalized intensity) was -1.16. With CGACCTCATGAGTAGAGAGCAATCATGGGC, the binding signal (log2 normalized intensity) is -1.17. The result for GGATTCAGATCCAGTGGACTCTCTGTTTGA reads 2.63; that for AACTCCTTGAGAAGTACAACTTCAGCAATG, -1.16. On to TCTAGGAGCCTGGACATTTGCCACCAATGC, for which the binding signal (log2 normalized intensity) was -1.08.

On to AAAGAAGCAAAGGTTGGCTAAAGATAACCT, for which the binding signal (log2 normalized intensity) is -1.22. As to TGAGACATTTTGTCTTTTCTCCCCTGACTA, the binding signal (log2 normalized intensity) amounted to 2.63. The result for GGAAAGCACAGCTGATTGCTCAACCCAAAG reads -1.11. Turning to AGGCCCACACCCCTGGGGAAGGCAGGTCTC, the binding signal (log2 normalized intensity) is -1.09. TGGGCAGGCTCCCTCCCTGGGAGGCAGGAC: the binding signal (log2 normalized intensity) is -1.16. With ATCTGCGAAATGGGGATAAACACCCCCATC, the binding signal (log2 normalized intensity) is -0.827.

Take TCACAGGTTCCAGCATGGACTTCACAGCCT: the binding signal (log2 normalized intensity) was -0.535. Take ACCTGAGAACAAACAATGGTTTGGGACAAA: the binding signal (log2 normalized intensity) is -0.924. Consider TCCCCCAACTTACTTAGTGGCTCCTAGAAT, for which the binding signal (log2 normalized intensity) was found to be 0.316. The result for CCTGAGAGGGCTCAAGGTCTGCATGCCATT reads -1.28; that for CCCCCCAAGTTGAAGCCATCCTCCCACCTC, 5.83. On to GGTCCGGCCCGACTCACGACCCCGCGGGAC, for which the binding signal (log2 normalized intensity) stood at 0.0393. With AAGGTTATTATATTGTGGGTTCTTGCCCTT, the binding signal (log2 normalized intensity) was found to be 2.97. Turning to ACAAGCCAGGTGTGCAGAGAGCAAACGAAC, the binding signal (log2 normalized intensity) was -1.03. For the sequence ATATGCACTTGCCCTTTGGTAATCCTGCTC, the binding signal (log2 normalized intensity) worked out at 2.44.

As for CTGACTGTGTCTGTTTACCCACTTGGGGTT, the binding signal (log2 normalized intensity) is 1.44. The result for TGTGCCGGGTATGTGGGGCGTGTGTTAGAC reads 1.84. With GTTTTGTCTTCTGTTTGCAAATGGATGAAT, the binding signal (log2 normalized intensity) turned out to be 2.03. The result for CCAGTTCTTTTGACCTTTGCCTCATTCTTA reads 6.03. AAAGGGACTCATCTCCAAACGAGACTTTGG: the binding signal (log2 normalized intensity) stood at 1.6. The figure for TGTTGCGTAAGGGTCTGACCTGGCTGCTTG is 0.997; for TATCTTTGGAGAATGCCTTTTGTGTAGGAG it is 1.64; for CAGTGTGTTGCATGCCACAGCGCCCTCAGT it is 0.532. In the case of TTTGGCTGTAGAAAGACTAAAGTTCAGGAG, the binding signal (log2 normalized intensity) worked out at 1.6. As to TGTCTCAGCCCAAGATCAAAAGGCAGAGAG, the binding signal (log2 normalized intensity) was -1.16.

In the case of TCGCCCTCCGTCGTGGCCTGGCGTGGATTC, the binding signal (log2 normalized intensity) came to 0.689. As for GGAGGTCTGCACAAAATACAAGTCGTAAAG, the binding signal (log2 normalized intensity) is -1.07.

Regarding ATTGCACCCTTCCCTAAGATTTATCCCAAA, the binding signal (log2 normalized intensity) turned out to be 0.83. As for GAAGTATTTATTGAGCACACACTCTTCGAA, the binding signal (log2 normalized intensity) is -1.07. The figure for CAAAGGCATTTCTGGACTTGGATCAGCCTG is 1.97; for AGGAGGCTGAAGACTTTGCACCAAGGAGAC it is -0.825.

As for AGTTATATCTTACCTCCTTCTCCCCCATGC, the binding signal (log2 normalized intensity) amounted to 4.87. The result for GATAAGGATCTAAGAACTAACATGGATCTA reads -0.974; that for AGGACTTTGTGATTACATTGAGTCCACTGA, 1.87; that for CACAGACTTTGGAATCACAATGATAACAGC, 0.158. As for TGGGTAAACAGACCTCTCTCTCCCCAGACA, the binding signal (log2 normalized intensity) was found to be 3.24. Consider CCAGCGCAGGGGCTTCTGCTGAGGGGGCAG, for which the binding signal (log2 normalized intensity) was -0.944.

Take TCTTATCTGGGGGCCATTCCTCTATCTCCC: the binding signal (log2 normalized intensity) was 0.336.

On to TGAGCATTCCAAAAAGCTTTTGTCATGACC, for which the binding signal (log2 normalized intensity) stood at 1.72. As to TGAGGTGCAGGACAAAGTGTGCACTTTGCA, the binding signal (log2 normalized intensity) was determined as 2.07.

Regarding TGAGGGAGGGCACAGGCAACAGAGGAGCAT, the binding signal (log2 normalized intensity) was -1.17. The figure for AAAGAAGCTACTAGCAAATCTGCCCAACCT is -1.1; for TGGAGCCAGATGCACACAGGATCAATAAAA it is -1.11; for TTACATGGATTAGTCCCTTTTCACGCTAAG it is -0.735.

For ACTCTCACCTTGGGGGCTGCTGGGGGCACA, the binding signal (log2 normalized intensity) turned out to be 1.08.

For TTTCCTTCTAGCTCCCCAATAGACATAACT, the binding signal (log2 normalized intensity) was 2.54.

As for TCCATAGTTCCGAGTTCCCTCGATTATTTC, the binding signal (log2 normalized intensity) was -0.843. The result for CTCTGCAGTAACTGTCATGGATGACCTCTT reads 4.38; that for CAGCAAACAGGTCCTGCTGGTTTGCCATTT, 0.581. Consider CAAACACAACATTGAAAGCGATCTTTGCAT, for which the binding signal (log2 normalized intensity) is -0.369. As for CCGGACACAAAAGCTGCTGCCAAGCGTCAG, the binding signal (log2 normalized intensity) was -1.1. For AATACGACCTTTGGACAGGGTGACGTCATT, the binding signal (log2 normalized intensity) was found to be 6.27.

On to TAAGTATAAAGTTAAGACCTACATTAAGAC, for which the binding signal (log2 normalized intensity) was -1.16. Turning to TTCGGGTTTTCGCAGCAAGTTACACAAGTA, the binding signal (log2 normalized intensity) is -0.724. GACACCAAACAGACCTCCCCCAACTTACTT: the binding signal (log2 normalized intensity) was determined as 3.5.
